Assay results published in the supplement of paper PMC3334620.
Whole data set: some 33,000 sequences, median “E-score (-0.5 to 0.5)” near -0.012, cut for the highest 2% near 0.29. The list shows a part of the results.

biological target: T1, Ybr033w (UniProt P38073); assay: PBM E-score (8-mer binding enrichment) (E-score (-0.5 to 0.5)); higher = stronger / more preferred TF binding; most listed sequences are background and not binding sites; conditions: protein concentration: 200 nM; construct: GST-full length
T1 sequence: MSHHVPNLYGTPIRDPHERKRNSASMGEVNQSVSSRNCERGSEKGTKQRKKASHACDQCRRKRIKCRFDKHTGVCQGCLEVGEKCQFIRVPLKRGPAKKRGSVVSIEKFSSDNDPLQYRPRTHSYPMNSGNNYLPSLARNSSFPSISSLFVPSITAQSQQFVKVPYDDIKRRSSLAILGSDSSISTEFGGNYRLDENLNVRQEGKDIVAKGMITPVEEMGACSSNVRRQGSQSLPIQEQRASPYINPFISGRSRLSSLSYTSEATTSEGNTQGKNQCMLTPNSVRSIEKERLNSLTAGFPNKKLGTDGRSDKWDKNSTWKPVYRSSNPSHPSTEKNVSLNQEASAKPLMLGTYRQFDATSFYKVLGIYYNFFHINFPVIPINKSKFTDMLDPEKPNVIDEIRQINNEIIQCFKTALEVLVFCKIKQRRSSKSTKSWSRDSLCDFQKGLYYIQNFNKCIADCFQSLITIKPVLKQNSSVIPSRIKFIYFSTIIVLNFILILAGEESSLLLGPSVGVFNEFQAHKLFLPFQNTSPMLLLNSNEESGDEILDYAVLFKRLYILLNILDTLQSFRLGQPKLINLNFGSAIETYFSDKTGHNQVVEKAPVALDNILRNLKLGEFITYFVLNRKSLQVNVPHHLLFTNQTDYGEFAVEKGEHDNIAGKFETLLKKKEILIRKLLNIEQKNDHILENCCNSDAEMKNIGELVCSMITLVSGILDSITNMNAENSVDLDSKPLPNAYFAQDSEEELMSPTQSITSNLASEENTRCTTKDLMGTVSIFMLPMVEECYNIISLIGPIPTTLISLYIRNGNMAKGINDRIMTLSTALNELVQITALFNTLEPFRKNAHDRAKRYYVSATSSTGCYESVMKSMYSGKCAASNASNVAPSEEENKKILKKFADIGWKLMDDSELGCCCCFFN
Summary of the method: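 The E-score, a modified Wilcoxon-Mann-Whitney statistic, was computed by the Universal PBM Analysis Suite for every ungapped eight-base word pooled with its reverse complement. Scans behind it were normalised with masliner after bound GST-tagged yeast transcription factors were detected with fluorescent anti-GST. The proteins, at about 100-200 nM, had been applied to universal all-10-mer Agilent arrays made double-stranded by primer extension.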

Row | Sequence | PBM E-score
1 | TCGGGGCA | -0.2
2 | TCATCGGA | 0.109
3 | CCAGAAGG | 0.0099
4 | GTGCTTAA | 0.0607
5 | ATCGTCAC | 0.0175
6 | TAGGATAA | 0.191
7 | CGCTAACC | -0.154
8 | GACCTCCC | -0.249
9 | ACATTTTC | 0.0229
10 | AAATAAGG | 0.00755
11 | AGCTCCAC | -0.183
12 | ACACGATG | -0.0592
13 | AGGAAGAC | -0.214
14 | GCATTAAC | 0.0724
15 | ACGCCTCA | -0.0842
16 | ATCGGCGC | -0.0516
17 | GGTATAAC | 0.0214
18 | GCGCCCGA | -0.175
19 | GTTACTTA | 0.18
20 | AGTTTTAG | 0.0593
21 | AAGACGCA | -0.0977
22 | CACCAGAG | -0.189

Row | Sequence | PBM E-score
23 | TAGCGACA | 0.0341
24 | CGACATAA | 0.125
25 | GAAGTTGC | -0.233
26 | AGCTATAC | -0.0639
27 | ACCGATGG | -0.136
28 | CTCGCAGC | -0.182
29 | GTAGGCCA | -0.119
30 | CAGTGGCG | -0.227
31 | AGATGCTC | -0.0578
32 | ACGTGTTG | -0.117
33 | CGTCCCAG | -0.21
34 | AGACCTCA | -0.101
35 | AACCTGAC | 0.103
36 | AGGACTCA | 0.0434
37 | CGCATGCC | 0.132
38 | CACGATCA | 0.0996
39 | ACCTGCGG | -0.146
40 | AGGTACTC | 0.0214
41 | ATGGCTCA | -0.0225
42 | AATGTCCT | 0.0282
43 | AGCTGAAA | 0.0546
44 | ACTCGTGC | -0.0546

Row | Sequence | PBM E-score
45 | GAAGTTTA | 0.278
46 | AGTCGGCG | -0.0441
47 | GAGGGATC | -0.117
48 | GACGACTC | -0.14
49 | CCCAACGA | -0.107
50 | ACCTTAGT | -0.026
51 | CCAACGCA | -0.0708
52 | TAAGCAGA | -0.0104
53 | CCAATGTC | -0.0608
54 | ACCGGACC | -0.199
55 | CCCAGGGC | -0.364
56 | GGTCAAAA | 0.0783
57 | CATGGCTC | -0.207
58 | CATGTGAA | -0.098
59 | CTACCTAA | 0.196
60 | GGAATGTA | 0.114
61 | GACTCTGC | -0.243
62 | AAAACTAC | 0.22
63 | AGCTGGAC | -0.145
64 | AAAAGGAA | 0.0996
65 | GGGCCAAC | -0.191
66 | CTTTGGCA | -0.192

Row | Sequence | PBM E-score
67 | AACAGGAT | 0.0273
68 | CGCTCGAG | 0.0302
69 | AGGGTGGC | -0.053
70 | GCGTCCCC | -0.287
71 | CATGGTGA | 0.137
72 | ACTCGCCT | -0.118
73 | GACTGAGA | -0.0938
74 | CTACTCCA | -0.00018
75 | ACCGACCT | -0.172
76 | CCCTAGTA | -0.0894
77 | CTCCACGC | -0.241
78 | GATAACAA | 0.153
79 | GATGGCCC | -0.235
80 | GAAGACTA | 0.0291
81 | GCTACTTA | 0.0917
82 | ATGGCGTA | 0.0718
83 | ACTAACGG | -0.0153
84 | AGTTGGGA | -0.086
85 | ATAGCCAT | 0.0973
86 | GAGTGAGA | 0.105
